Among all 310,000 compounds or so, about 2,200 (0.71%) showed an effect of 50% or more. Effects have a minus sign here. The list shows a part of the results.
These molecules were tested against human ether-à-go-go-related gene (hERG) potassium channel (human, UniProt Q12809) (assay: primary screen, population patch clamp on CHO cells stably expressing hERG).
Chain of human ether-à-go-go-related gene (hERG) potassium channel (Q12809 whole entry, looked up): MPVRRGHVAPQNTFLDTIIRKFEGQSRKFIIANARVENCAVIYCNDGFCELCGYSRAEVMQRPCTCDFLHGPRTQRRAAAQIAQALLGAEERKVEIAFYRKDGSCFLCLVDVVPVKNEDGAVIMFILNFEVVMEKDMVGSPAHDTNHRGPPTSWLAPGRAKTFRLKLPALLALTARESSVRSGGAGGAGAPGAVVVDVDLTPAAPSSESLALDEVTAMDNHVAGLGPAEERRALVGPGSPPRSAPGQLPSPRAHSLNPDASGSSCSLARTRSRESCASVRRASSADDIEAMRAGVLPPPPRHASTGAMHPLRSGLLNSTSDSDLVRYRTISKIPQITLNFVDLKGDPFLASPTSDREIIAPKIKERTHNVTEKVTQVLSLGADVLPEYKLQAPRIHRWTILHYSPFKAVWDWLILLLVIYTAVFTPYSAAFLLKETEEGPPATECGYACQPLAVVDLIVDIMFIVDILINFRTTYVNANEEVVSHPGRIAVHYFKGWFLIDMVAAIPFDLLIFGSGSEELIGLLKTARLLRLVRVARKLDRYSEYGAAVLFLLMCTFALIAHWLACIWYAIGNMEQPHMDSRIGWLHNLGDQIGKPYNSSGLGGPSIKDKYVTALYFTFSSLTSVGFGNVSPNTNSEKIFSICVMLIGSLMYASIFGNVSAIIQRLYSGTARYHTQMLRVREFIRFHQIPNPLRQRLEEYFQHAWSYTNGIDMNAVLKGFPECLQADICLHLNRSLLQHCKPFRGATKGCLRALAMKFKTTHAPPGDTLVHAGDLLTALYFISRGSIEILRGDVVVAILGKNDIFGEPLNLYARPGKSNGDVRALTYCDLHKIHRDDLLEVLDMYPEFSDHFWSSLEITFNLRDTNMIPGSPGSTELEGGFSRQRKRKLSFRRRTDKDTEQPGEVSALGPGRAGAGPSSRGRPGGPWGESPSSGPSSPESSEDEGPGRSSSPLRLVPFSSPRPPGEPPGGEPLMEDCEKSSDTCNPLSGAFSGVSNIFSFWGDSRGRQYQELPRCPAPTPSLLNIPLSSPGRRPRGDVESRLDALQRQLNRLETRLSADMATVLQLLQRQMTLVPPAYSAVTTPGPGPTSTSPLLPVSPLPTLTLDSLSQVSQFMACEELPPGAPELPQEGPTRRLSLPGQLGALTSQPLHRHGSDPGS

| SMILES | hERG current change (%, negative = inhibition) at 1uM |
| --- | --- |
| CC(=O)c1ccc(N2Cc3ccccc3/C2=N\C(=O)Nc2ccc(Cl)cc2)cc1 | -0.961% |
| NC(=S)N/N=C/c1ccc(-c2cc(Cl)cc(Cl)c2)o1 | 8.65% |
| COc1ccc(-c2nn(-c3ccccc3)cc2/C=C(\C#N)C(N)=O)cc1[N+](=O)[O-] | 28% |
| S=C(N/N=C/c1ccc2ncccc2c1)Nc1cccnc1 | 8.67% |
| COC(=O)CN1C(=O)C2(C(C#N)=C(N)Oc3ccccc32)C2=C1CC(C)(C)CC2=O (stereo not drawn) | 9.96% |
| O=C(Nc1cc(Cl)ccc1F)c1ccc(-n2cncn2)c([N+](=O)[O-])c1 | -9.27% |
| O=S(=O)(NC1CC1)c1ccc2c3c(cccc13)CC2 | 6.76% |
| CCOC(=O)c1ccc(NC(=O)C2CCCN(S(=O)(=O)c3ccc(F)cc3)C2)cc1 (stereo not drawn) | -1.38% |
| CC1(C)C(C=C(Cl)Cl)C1C(=O)N1CCN(c2ccccc2)CC1 (stereo not drawn) | 0.423% |
| Cc1ccc(NC(=O)C2CC(=O)N(c3ccc4c(c3)OCCO4)C2)nc1 (stereo not drawn) | 9.18% |
| CN(C)C(=O)c1ccc(-n2nc(C(F)(F)F)c3c2CCCC3)cc1 | -1.45% |
| CCCn1c(C(C)Nc2nc(-c3ccc(C)cc3)cs2)nc2ccccc21 (stereo not drawn) | 16.8% |
| Fc1cccc(/C=N/Nc2ccccn2)c1 | 18.1% |
| O=C(c1ccc(Br)c([N+](=O)[O-])c1)N1CCN(Cc2ccccc2)CC1 | -8.05% |
| CCOC(=O)C1C(=O)OC2(CCOC(C)(C)C2)C1C(=O)OCC (stereo not drawn) | 4.85% |
| Cc1csc(Nc2ccc(C(=O)O)cc2)n1 | 12.6% |
| COc1ccc(CCN(C)C2CCCN(C(=O)Cn3cnnn3)C2)cc1OC (stereo not drawn) | 10.7% |
| CCN(CC)CCCNC(=O)c1[nH]c(C)c(C(=O)NC2CCCCC2)c1C | 14.3% |
| Cc1csc(SCC(=O)Nc2cc([N+](=O)[O-])ccc2F)n1 | 11.9% |
| COc1ccccc1C(=O)Nn1c(-c2cccs2)nc2ccccc2c1=O | 4.7% |
| O=C(CN1CCN(Cc2ccccc2)CC1)Nc1ccccc1-c1ccccc1 | -39.6% |
| CC(=O)c1cnc(-c2ccccc2Cl)s1 | 13.5% |
| COc1cc2c(cc1NC(=O)CSc1nnc(COc3ccc(Cl)cc3)n1C)oc1ccccc12 | 14.3% |

| SMILES | hERG current change (%, negative = inhibition) at 1uM |
| --- | --- |
| CCCCn1c(O)c(N=NC(=O)c2ccco2)c2ccccc21 | 8.21% |
| CC(=O)c1ccc(NC(=O)N2CCc3ccccc3C2)cc1 | 2.02% |
| CNC(=O)CSc1nnc(SCCC(=O)O)s1 | 11.1% |
| COc1ccc(C(=O)Nc2nncs2)cc1S(=O)(=O)N1CCOCC1 | 12.4% |
| O=C(NCCOc1ccccc1)C1CCC(=O)N(CCc2ccc(Cl)cc2)C1 (stereo not drawn) | -45% |
| Cc1ccc(CN2CCN(CCCn3cccn3)CC2CCO)cc1 (stereo not drawn) | -23.7% |
| COc1ccc(CCNC(=O)CC2Nc3cc(C)c(C)cc3NC2=O)cc1OC (stereo not drawn) | 2.08% |
| CCOC(=O)c1sc(NC(=O)c2ccc(C)o2)nc1C | -0.302% |
| O=C(CCCc1ccccc1)NCCN1CCOCC1 | 5.14% |
| COc1ccccc1CNc1nc(S(=O)(=O)c2ccccc2)c(Cl)s1 | 9.35% |
| CN(CC(=O)Nc1ccc2c(c1)OCCO2)Cc1nc2ccccc2c(=O)[nH]1 | 11.2% |
| CCCCNC(=O)C(=O)Nc1cc2c3c(c1)CCC(=O)N3CCC2 | 8.99% |
| Cc1ccc(/C=C(\NC(=O)c2ccccc2)C(=O)NCCc2ccccn2)o1 | 1.43% |
| O=C(NNS(=O)(=O)c1ccccc1)c1ccncc1 | 16.7% |
| Cl.O=C(O)c1ccc(CN2CCCCC2)o1 | 13.5% |
| CC(C)(C)N=Cc1cc(-c2ccccc2)sc1O | -10.3% |
| O=C(NCCO)C(=O)Nc1cc2c3c(c1)CC(=O)N3CCC2 | 20.3% |
| CCC(=O)Nc1ccc(C(=O)Cn2ncc(Cl)c(Cl)c2=O)cc1 | 12.5% |
| Cc1ccc(OCC(=O)N(C)CC(=O)N(CC(C)C)c2c(N)n(CC(C)C)c(=O)[nH]c2=O)c(C)c1 | 13.2% |
| CN(CC(=O)N1CCN(c2ccccc2)CC1)S(=O)(=O)c1cnc[nH]1 | 12.1% |
| O=C(O/N=C1/CCCc2occc21)c1ccccc1 | 9.06% |
| CCOC(=O)c1nn(-c2ccccc2)c(C#N)c1NC(=O)c1nn(CC)cc1Br | 16.1% |
| COc1ccc(CC(=O)NCC(=O)Nc2ccccc2Br)cc1 | 12.3% |

| SMILES | hERG current change (%, negative = inhibition) at 1uM |
| --- | --- |
| Clc1ccc(NCc2cccnc2)cc1 | 2.53% |
| Cc1ccc(NC(=S)N(CCN(C)C)Cc2cc3cc(C)cc(C)c3[nH]c2=O)cc1 | 6.8% |
| CCC1(CC)C(=O)N(C)C(=O)NC1=NCc1ccccc1 | -1.22% |
| CCN(CC)CCNC(=O)c1ccc2c(c1NCCO)C(=O)c1ccccc1C2=O | 0.921% |
| O=C(O)CC(NC(=O)C12CC3CC(CC(C3)C1)C2)c1ccc(F)cc1 (stereo not drawn) | 17.9% |
| CCC(C)n1[nH]c(=O)c2c(C)cc(C)nc21 (stereo not drawn) | 13.9% |
| CC(=O)/C=C/c1ccc2ccccc2n1 | 1.13% |
| COc1cc(C(=O)NC(c2ccccc2)c2ccccc2)cc(OC)c1C | 15.2% |
| N#Cc1ccc(C23CC4(C2)[C@H](CN(Cc2ccc(C(F)(F)F)cc2)[C@@H]4c2ccccc2)C3c2ccc(C(F)(F)F)cc2)cc1 (stereo partly drawn) | 15.5% |
| COc1cccc(Oc2cn[nH]c2-c2ccc(O)cc2O)c1 | 1.1% |
| CS(=O)(=O)Nc1ccc(C2=NN(S(C)(=O)=O)C(c3ccccc3)C2)cc1 (stereo not drawn) | -40.6% |
| CCC(=O)c1cn(CC(=O)O)c2ccccc12 | 9.33% |
| CCOC(=O)c1ccccc1NC(=O)C1=COCCO1 | 14.1% |
| Cc1ccccc1Cn1cnc2c(oc3ccccc32)c1=O | 11.4% |
| COc1ccc(N2C(=O)CS(=O)C(c3ccccc3)C2=O)cc1 (stereo not drawn) | -24.3% |
| CCOC(=O)/C(C#N)=C/c1ccc(OCC(=O)Nc2ccc(C)c(C)c2)c(OC)c1 | 9.11% |
| CCOC(=O)C(/C(C)=N/NC(=O)c1ccccc1[N+](=O)[O-])C(C)C (stereo not drawn) | 4.69% |
| CCN(CC)P(=O)(NC(=O)C(Cl)(Cl)Cl)N(CC)CC.[Cl-].[Cl-].[Cl-].[Nd+3] | -4.63% |
| CC(=O)N(C)c1ccc(NS(=O)(=O)c2cc(Cl)ccc2Cl)cc1 | 1.51% |
| CCNC(=O)CC1SC(=Nc2ccc(Cl)cc2)N(CC)C1=O (stereo not drawn) | -0.56% |
| CCC(C)c1ccc(NC(=O)c2[nH]c(C)c(C(C)=O)c2C)cc1 (stereo not drawn) | 12.2% |
| O=C(CSc1nnc(NC(=O)c2ccccc2Cl)s1)NC1CC1 | 13.5% |
| CCN1CCN(S(=O)(=O)c2ccc(Br)s2)CC1 | 8.57% |

| SMILES | hERG current change (%, negative = inhibition) at 1uM |
| --- | --- |
| COc1ccc(NC(=O)CN(C)C(=O)CC2CCCC2)cc1 | 11.8% |
| O=C(NCc1ccco1)C1(c2ccc(Br)cc2)CCCC1 | 11.9% |
| COc1cc(C(CCN2CCCC(C)C2)c2c(OC)cc(OC)c3c2OC(=O)CC3c2ccc(N(C)C)cc2)cc(OC)c1OC (stereo not drawn) | 8.8% |
| Cc1nnc(SCC(=O)NNC(=O)c2ccc(Cl)cc2)n1CC1CCCO1 (stereo not drawn) | -1.84% |
| N/C(=N\OS(=O)(=O)c1ccc(Cl)cc1)c1ccncc1 | -2.98% |
| COc1ccc(C(=O)NC(C)CCCC(C)(C)O)cc1OC1CCN(C(C)=O)CC1 (stereo not drawn) | 18.2% |
| Cc1cc(-c2ccc(S(=O)(=O)N3CCN(C)CC3)s2)on1 | 6.37% |
| CCOc1ccccc1NC(=O)c1ccc2c(c1)C(=O)N(CC(C)C)C2=O | 8.08% |
| CC1OC2(C)OC(=N)C1(C#N)C(C#N)(C#N)C2c1ccccc1 (stereo not drawn) | 21.3% |
| COc1cc(C2N(c3ccccn3)C(=O)C3CCCN32)cc(OC)c1OC (stereo not drawn) | 1.27% |
| CCCNc1nc(N)nc(-c2cc(Cl)ccc2OC)n1 | 10.4% |
| CCN1C(=O)[C@@H]2[C@H](C1=O)[C@@H]1C(=O)Nc3ccccc3C(=O)N1[C@@H]2c1ccccc1 | 9.1% |
| COc1ccc(NC(=O)CCc2nnc3ccc(NCc4ccco4)nn23)cc1 | 10.4% |
| Clc1ccc(-c2ccn[nH]2)cc1 | 11.3% |
| COCCOC(=O)c1c(C)nc(SCC(=O)Nc2ccc(C)cc2)c(C#N)c1-c1ccco1 | 11.6% |
| O=C(Nc1cccc(NC(=O)c2ccc(-c3ccc(Br)cc3)o2)c1)c1ccccc1 | -0.478% |
| CCC(Cc1ccccc1)NC(=O)c1ccc2nc(N3CCOCC3)sc2c1 (stereo not drawn) | 0.867% |
| CCOc1ccc(NS(=O)(=O)c2ccc(SC)cc2)cc1 | 0.548% |
| Cc1noc(C)c1C(=O)Nc1cc(Cl)ccc1N1CCOCC1 | 12% |
| O=C(c1cc(C2CC2)nc2ccccc12)N1N=C(C(F)F)CC1(O)C(F)F (stereo not drawn) | 3.05% |
| O=C(O)CNC(=S)N(Cc1ccco1)Cc1ccccc1Cl | 6.02% |

Reference: PMC4336329 (PLoS ONE, 2015)
